Structures are written as SMILES. Several values for one entry are separate records, joined by “and”; a condition that tells them apart may be missing. Identical values can stand only once.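 Values below derive from 48-hour exposures of cells grown in 96-well plates, with endpoints linearly interpolated between the two concentrations bracketing the appropriate inhibition level. The concentration for 50% growth inhibition is given as GI50. TGI denotes the concentration required for complete inhibition of growth.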

This assay has as its system NCI-H322M lung. Briefly: NCI-60 cell line screen, 48 h.
Consider `NC(=S)NS(=O)(=O)c1ccc(Cl)cc1Cl`, for which the TGI was over 100 µM.

`Cn1cnc([N+](=O)[O-])c1Sc1nncc2[nH]cnc12` yielded a TGI of over 100 µM. Regarding `COc1ccc(/C=C/CO)cc1OC`, the TGI was over 100 µM. On the same count and under the same terms, the value for `Cc1cc2nnn(C3CCCO3)c2cc1C` (configuration not stated) was over 100 µM; that for `N#Cc1nc(Cc2cccs2)oc1N` was over 100 µM; that for `CCOc1cc(C=Nc2ccc(Oc3ccc(Cl)cc3)c(Cl)c2)ccc1O` was 74.9 µM. In the case of `Cc1cn(C2CC(O)C(Cn3cc(Cn4nc(Br)c(=O)[nH]c4=O)nn3)O2)c(=O)[nH]c1=O` (configuration not stated), the TGI was over 100 µM. Take `COc1cc(C(=O)c2c(-c3ccccc3)oc3ccccc23)cc(OC)c1O`: the GI50 is 4.44 µM and the TGI was determined as 26.4 µM. `C1CCN2CC34CC(CC5CCCN(C6CCCC3N6)C54)C2C1` (configuration not stated) showed a TGI of over 100 µM. Same read-out and setting: the value for `S=C1OC2C3C4CC5C3C(O1)C1C5C4C21` (configuration not stated) was over 100 µM. For the compound `COc1cc(SC)ccc1C(=O)N1CCCC(C)C1` (configuration not stated), the GI50 was over 100 µM and the TGI was over 100 µM. Turning to `CC(C)=CCC[C@](C)(O)[C@H]1CC[C@]2(C)[C@@H]1CC[C@@H]1[C@@]3(C)CC[C@H](OC(=O)CCC(=O)O)C(C)(C)[C@@H]3CC[C@]12C`, the GI50 is 21.8 µM and the TGI turned out to be 86.6 µM. `C[C@@H](CC(O)C(O)C(C)(C)O)C1CCC23CC12CCC1[C@@]2(C)CCC(=O)C(C)(C)C2CC(OC2OC(CO)C(O)C(O)C2O)[C@]13C` (some centres not stated) yielded a TGI of over 10 µM. The compound `OCC(O)C(OC1OC(CO)C(O)C(O)C1O)c1nn(-c2ccc(F)cc2)c2nc3cc(Cl)c(Cl)cc3cc12` (configuration not stated) had a TGI of over 100 µM. Turning to `CC(Cl)CC(=O)Nc1ccc2c(c1)oc(=O)c1cc(NC(=O)CC(C)Cl)ccc12` (configuration not stated), the GI50 is 7.02 µM and the TGI is 31.8 µM. Compound `CCCS(=O)OC1C(C2COC(C)(C)O2)OC2OC(C)(C)OC21` (configuration not stated) displayed a TGI of 37.7 µM. The same measure, in the same setting: the result for `NC(=O)Cn1c(=O)[nH]c(=O)c2[nH]cnc21` reads over 100 µM.

With `Cc1cc(I)cc(CN(C)CCCCN2CCCC2)c1O`, the GI50 was 28.4 µM and the TGI was over 100 µM.

`Nc1ncc(Cc2nn3c(COc4ccc(Cl)cc4)nnc3s2)s1` gave a TGI of over 100 µM. For `C#Cc1ccccc1C(=O)OC`, the TGI was over 100 µM. Take `COc1cc([N+](=O)[O-])c2ncccc2c1O`: the GI50 was 2.2 µM and the TGI worked out at 5.58 µM.

As to `C/C(=N\NC(=S)Nc1ccc([N+](=O)[O-])cc1S(=O)(=O)O)c1ccccn1`, the TGI was determined as 96.9 µM.

As to `OCC1CC2CC1C1(C2)OCCO1` (configuration not stated), the TGI was over 100 µM. Consider `O=C(O)C1(Cc2ccc3c(c2)CCC3)Cc2cc3c(cc2C1)CCC3`, for which the TGI was over 100 µM. Same read-out and setting: the value for `CCCCCCCCCCCOCCC1C(C(C)OCCN2CCCC2)OC2OC(C)(C)OC21` (configuration not stated) was 10.1 µM. Still for that read-out and setting: the result for `CC(=O)Nc1[nH]c(=O)[nH]c(=O)c1N(C(C)=O)C(C)=O` reads over 100 µM.

Regarding `CNc1ccc([N+](=O)[O-])cc1C(=O)N1CCC[C@H]1CO`, the TGI was over 100 µM.

In turn, `CC1=C[C@H]2C[C@@]3(C)O[C@@H]([C@]4(C)CC[C@H]([C@@H](C)C(=O)O)OO4)CC3C(C)(C)[C@H]2CC1` (some centres not stated) yielded a TGI of 3.9 µM. The compound `Nc1nc(Cl)cc(NCCCCCCCCCCNc2cc(Cl)nc(N)n2)n1` registered a TGI of over 100 µM. On the same count and under the same terms, the result for `CCOC(=O)C1C2C1C1C(C(=O)OCC)C21` (configuration not stated) reads over 100 µM; that for `Clc1cccc(C2SCc3nc4ccccc4n32)c1Cl` (configuration not stated), 36.8 µM; that for `C=C1C(=O)OC2C1CC1OC2C(C)CCC/C(C)=C\CCC1(C)O` (configuration not stated), 84 µM. Still for that read-out and setting: the value for `CC1=CC(=O)c2[nH]c3ccccc3c2C1=O` was over 25 µM; that for `CCSc1nn(-c2c3ccccc3nc3ccccc23)c(=S)s1` was over 100 µM; that for `O=C1CCCc2c(O)ccc(O)c21` was over 100 µM. Turning to `NC(=O)c1ccc(-c2c3ccccc3cc3c2ccc2ccccc23)cc1`, the GI50 is 7.59 µM and the TGI was over 100 µM. Consider `CC(C)c1cc2c(O)c(c1)Cc1cc(C(C)C)cc(c1O)Cc1cc(C(C)C)cc(c1O)Cc1cc(C(C)C)cc(c1O)Cc1cc(C(C)C)cc(c1O)Cc1cc(C(C)C)cc(c1O)C2`, for which the TGI was over 100 µM.

`CCOC(=O)c1cc2cc([N+](=O)[O-])ccc2oc1=O`: the TGI was over 100 µM.

For the compound `O=C(O)c1cc2c(cc1CC(Cc1ccccc1)C(=O)O)CCC2` (configuration not stated), the TGI was over 100 µM. Still for that read-out and setting: the value for `O=C1C(=O)C(CCCO)(CCCO)CCCCCCCCC1(CCCO)CCCO` was over 100 µM; that for `CC(C)(C)c1ccc(C(O)(c2ccc(C(C)(C)C)cc2)c2ccc(C(C)(C)C)cc2)cc1` was over 100 µM. On the same count and under the same terms, the value for `Fc1ccccc1C1SCC2=Nc3ccccc3CN21` (configuration not stated) was over 100 µM.

For `CCNC1=CC(=O)c2ncccc2C1=O`, the GI50 is 1.55 µM and the TGI was 2.95 µM. `CC(=O)Oc1ccc(-c2c(OC(C)=O)c(OC(C)=O)c(-c3ccc(OC(C)=O)c(OC(C)=O)c3)c(OC(C)=O)c2OC(C)=O)cc1`: the TGI was determined as 62.9 µM. On to `O=[N+]([O-])C(=C(c1ccccc1)c1ccccc1)[N+](=O)[O-]`, for which the TGI was 31.3 µM. On the same count and under the same terms, the result for `COC(=O)C1CC(C=O)=C(SC)N1` (configuration not stated) reads over 50 µM; that for `CCOC(=O)c1c(C)n(CCN2CCN(C)CC2)c2ccc(OC)cc12`, over 100 µM; that for `CC1=C(C(=O)OC(C)C)C(c2cccc([N+](=O)[O-])c2)C(C(=O)OC(CO[N+](=O)[O-])CO[N+](=O)[O-])=C(C)N1` (configuration not stated), over 100 µM. The same measure, in the same setting: the result for `O=c1c2cc(Cl)ccc2n2nnc3ccc(NCCNCCO)c1c32` reads 2.57 µM; that for `Cc1nc(-c2ccc(Cl)cc2)cn2c1nc1ccccc12`, over 100 µM; that for `CN(CCc1ccccn1)C(=S)N/N=C/c1ccccn1`, 35.6 µM. As to `O=c1[nH]nc(Cc2ccc([N+](=O)[O-])cc2)[nH]1`, the TGI is over 100 µM. Regarding `O/N=C1/CCCCC1NO` (configuration not stated), the TGI is over 100 µM. On the same count and under the same terms, the value for `Cc1[nH]nc(C(=O)N/N=C/c2cccs2)c1N=NN(C)C` was 89.8 µM; that for `CC(C)(C)OC(=O)N[C@@H](Cc1ccccc1)C(=O)N1CC[C@@H](C(=O)N2[C@H]3CC4CC[C@@]3(CS2(=O)=O)C4(C)C)N1` was over 100 µM.

Compound `O=C(c1ccccc1)c1ccc2c(c1)N=C(c1ccc(Cl)c(Cl)c1)CC(c1ccc3ccccc3c1)N2` (configuration not stated) showed a TGI of over 100 µM. Still for that read-out and setting: the value for `Cc1ccc(N=Nc2cc(=O)[nH]c(=O)[nH]2)cc1C` was 31.9 µM. In turn, `Cn1c(=O)n2n(c1=O)C1C(=CC2)C2C=CC1n1c(=O)n(C)c(=O)n12` (configuration not stated) showed a TGI of over 100 µM. The same measure, in the same setting: the value for `N#CCc1nc2c(s1)C(=O)c1ccccc1C2=O` was 62.1 µM; that for `c1ccc(CN(Cc2ccccn2)Cn2cccn2)nc1` was over 100 µM; that for `COc1ccc(-c2nc(N)nc(-c3cc(C)ccc3O)c2Cl)cc1` was over 100 µM. Still for that read-out and setting: the result for `C=CC(=O)N1C/C(=C\c2ccc(F)cc2)C(=O)/C(=C/c2ccc(F)cc2)C1` reads 4.2 µM; that for `CC1Oc2c(c(O)cc3oc(=O)cc(-c4ccccc4)c23)C(=O)C1C` (configuration not stated), over 100 µM.

For the compound `Cc1ccc(Nc2ccnc(Nc3cccc(C(N)=O)c3)n2)cc1O`, the GI50 is 2.33 µM and the TGI is over 25 µM.

`COc1cc(/C=C/C=C2\CC(C)C/C(=C\C=C\c3ccc(O)c(OC)c3)C2=O)ccc1O` (configuration not stated) returned a TGI of over 100 µM. In the case of `COc1ccc2c3c([nH]c2c1)[C@H]1C[C@H]2[C@H](C[C@@H](O)[C@H](OC)[C@H]2C(=O)O)CN1CC3`, the TGI is over 100 µM. On the same count and under the same terms, the result for `COc1ccccc1OCC(COC(=O)Nc1ccc(C)cc1)OC(=O)Nc1ccc(C)cc1` (configuration not stated) reads over 100 µM.

The compound `C/C(=N\N=C(N)N)c1sc(-c2nc(C)c(/C(C)=N/N=C(N)N)s2)nc1C` yielded a TGI of over 100 µM. Same read-out and setting: the value for `c1csc(-c2csc(-c3cccs3)c2)c1` was over 100 µM; that for `O=C(O)C1C2CC3CC2CC31` (configuration not stated) was over 100 µM. Same read-out and setting: the result for `NC(=O)CN1CCN(c2nc(N3CCCC3)c3nc(Cl)c(NCc4ccccc4)nc3n2)CC1` reads 34.8 µM; that for `CC[N+]1(C)CCC(O)(/C=C/c2ccc(Cl)c(Cl)c2)C(C(=O)/C=C/c2ccc(Cl)c(Cl)c2)C1` (configuration not stated), 20.4 µM. Consider `COCCOCCOCCOCCOc1ccc2c(c1)C(=O)c1nc3ncccc3c(=O)n1-2`, for which the GI50 was 0.546 µM and the TGI stood at 1.73 µM. As for `Cc1cc(Br)cc(C)c1NC(=O)C(=O)C(C(=O)c1ccc(Cl)c(Cl)c1)C1OC(=O)c2ccccc21` (configuration not stated), the TGI is over 100 µM. With `N#CC(C#N)=C/C=C/c1cccc([N+](=O)[O-])c1`, the GI50 was 2.68 µM and the TGI is 12.5 µM. The compound `CC1=NN(C(=O)Cc2ccccc2)C(=O)/C1=C\c1cccc(O)c1` gave a TGI of over 100 µM. For `Cc1ccc(C)c2sc3cc(=O)ccc-3nc12`, the TGI was over 100 µM. As for `O.O=[Se](=O)(O)O.[NH-]C1CCCCC1[NH-].[Pt+2]` (configuration not stated), the GI50 is 43 µM and the TGI is over 100 µM.

In turn, `CC(C)(CN1CCCCC1)C(=O)CC(SCCS(=O)(=O)O)c1ccc(Cl)c(Cl)c1` (configuration not stated) displayed a TGI of 21.6 µM. On the same count and under the same terms, the result for `COC(=O)[C@]12CCC(=O)N1[C@H](C(=O)O)Cc1c2[nH]c2ccccc12` reads over 100 µM. The same measure, in the same setting: the value for `COc1ccc(/C=C(\C#N)c2nc(-c3cc4ccccc4oc3=O)cs2)cc1` was over 100 µM. `Nc1ncnc2c(C3OC(CO)C(O)C3O)c[nH]c12` (configuration not stated): the GI50 is 0.0165 µM; the TGI was 0.327 µM and 1.22 µM. Compound `CC(C)S(=O)(=O)n1c(N)nc2ccc(/C(=N/O)c3ccccc3)cc21` showed a TGI of 47.8 µM. For the compound `COc1ccc(/C(Cl)=C(\C=O)c2ccc(Cl)cc2)cc1`, the TGI stood at 32.2 µM. The compound `Clc1ccc(CCN2CCOCC2)c(Cl)c1` showed a TGI of over 100 µM. As to `O=C(O)c1oc2ccc([N+](=O)[O-])c3c2c1CCC3`, the TGI is over 100 µM. The same measure, in the same setting: the result for `Cc1ccc(Oc2cc(C)ccc2P(=O)(O)O)cc1` reads over 100 µM; that for `Oc1cc(Br)cc2cc(Br)cnc12`, over 100 µM; that for `COc1cccc2c1C(=O)c1c(O)c3c(c(O)c1C2=O)C[C@](O)(C(=O)CO)CC3OC1CC(N)C(OC2CCCCO2)C(C)O1` (some centres not stated), 5.73 µM. In the case of `Nc1ccccc1C#Cc1ccccc1C#CCCCCO`, the GI50 is 25.3 µM and the TGI turned out to be 89.3 µM. As for `C=C1C(=O)O[C@H]2[C@@H](O)[C@H](C)CCC/C(C)=C/CC[C@@]3(C)O[C@@H]3C[C@@H]12`, the TGI is 28.9 µM.

In turn, `CC(=O)Nc1oc(C)nc1C#N` came in with a TGI of over 100 µM.

In turn, `C[N+](C)(C)c1nc(N)nc2c1ncn2C1OC(CO)C(O)C1O` (configuration not stated) returned a TGI of over 100 µM.
